“And” between values parts separate entries of the source, which are not always exact repeats. Identical values can stand only once. The whole screen tested about 420,000 compounds, of which about 64,000 (15%) were called active. The shares of active, inactive and inconclusive entries below differ from those in the screen. Calls come from the whole dose curve; as a rule, active = well fitted inhibition curve with a large enough effect; inconclusive = small, poorly fitted or top-dose-only effect; inactive = flat fitted curve, though single readings scatter. Where the call is inconclusive, the potency comes from a doubtful curve fit.
Assay: qHTS for Inhibitors of human tyrosyl-DNA phosphodiesterase 1 (TDP1): qHTS in cells in absence of CPT; note: nearly all actives have a fitted effect of over 55% in size
Conditions: DT40 Tdp1-/- hTDP1 cells, no CPT, ATP luminescence, 48 h; series mostly up to 46.2 µM
Summary of the method: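 Chicken DT40 Tdp1-/- cells stably complemented with human TDP1 were seeded at 400 cells/well with DMSO in place of 20 nM camptothecin. After compound pinning, cells grew at least 48 hr at 37 °C; viability read by CellTiter-Glo luminescence.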
In the case of `CC1=CC(=O)Nc2ncccc2O1`, the Potency is reported as inconclusive: 29.1 µM [inhibitor, single point].
For `CCCNC(=O)NC(C(=O)OC)C12CC3CC(CC(C3)C1)C2` (configuration not stated), the Potency was “inactive”.
In the case of `COc1ccc2nc(NC(=O)c3cccc(OCc4c(C)noc4C)c3)sc2c1`, the Potency is reported as active: 2.91 µM.
For `COc1cccc(CN2CC(C(=O)NCCc3nccs3)CCC2=O)c1` (configuration not stated), the Potency was “inactive”.
For `COc1ccccc1-c1cc(NC(C)=O)c2ncc(-c3cccc(C(C)=O)c3)n2c1`, the Potency was active: 14.6 µM.
In the case of `CC(C)(C)c1ccc(Cc2n[nH]c(=S)[nH]c2=O)cc1`, the Potency is reported as “inactive”.
With `Clc1ccccc1CSc1cc2c(nn1)-c1ccccc1CC2` the Potency was inconclusive: 2.06 µM [inhibitor, partial curve, poor fit].
For `COc1ccccc1NC(=O)C(C)Sc1nc(-c2ccccc2)cn1N` (configuration not stated), the Potency was “inactive”.
For `O=C(Cn1ncc2ccccc21)N1CCN(c2cccc(C(F)(F)F)c2)CC1`, the Potency was inconclusive: 16.4 µM [inhibitor, partial curve].
In the case of `CCCCNC(=S)NCC(c1ccccc1)c1c[nH]c2ccccc12` (configuration not stated), the Potency is reported as inconclusive: 25.9 µM [inhibitor, single point].
With `CCOc1ccc(N(C)S(=O)(=O)c2ccc(-c3ccc(=O)[nH]n3)s2)cc1` the Potency was “inactive”.
With `CCN(/N=C/c1ccccc1)c1cc(=O)n(C)c(=O)[nH]1` the Potency was inconclusive: 4.61 µM [inhibitor, full curve, poor fit].
In the case of `CCC(O)(CC)C(=O)N/N=C/c1cc(Br)cc(Br)c1O`, the Potency is reported as active: 14.6 µM.
In the case of `COc1ccc(N2CCN(C(=O)c3cccs3)CC2)cc1`, the Potency is reported as “inactive”.
With `Cc1ccc([C@H]2C(C(=O)O)=CC[C@@H](c3cccc(Cl)c3)N2S(=O)(=O)c2ccc(C)cc2)cc1` the Potency was “inactive”.
With `CCCCOc1cccc(C(=O)Nc2ccc(N3CCN(CC)CC3)cc2)c1` the Potency was inconclusive: 29.1 µM [inhibitor, single point].
With `Cc1onc(-c2ccc(Cl)cc2)c1-c1ccnn1S(=O)(=O)c1cccc(C(F)(F)F)c1` the Potency was active: 23.1 µM.
For `Clc1ccc(N2CCN(c3ccnc(Cl)n3)CC2)cc1`, the Potency was inconclusive: 20.6 µM [inhibitor, partial curve].
In the case of `Cc1ccc(COc2ccc(/C=N/O)cc2)cc1`, the Potency is reported as inconclusive: 23.1 µM [inhibitor, single point].
For `CCOc1ccccc1N(C)C(=O)Cn1nc(Cc2ccncc2)c2ccccc2c1=O`, the Potency was inconclusive: 29.1 µM [inhibitor, single point].
In the case of `COc1ccc(CCNC(=O)C(=O)c2cn(CC(=O)N3CCCC3)c3ccccc23)cc1`, the Potency is reported as active: 20.6 µM.
In the case of `CN(C)/C=C1/Oc2c(ccc3ccccc23)C1=O`, the Potency is reported as inconclusive: 14.6 µM [inhibitor, single point].
In the case of `COc1ccc(C(O)C(O)(C(=O)OC(C)C)c2ccc(C)cc2)cc1` (configuration not stated), the Potency is reported as inconclusive: 23.1 µM [inhibitor, single point].
For `Cc1noc(C)c1CSCc1ccc(Cl)cc1`, the Potency was “inactive”.
With `Cc1cc(C(=O)N/N=C/c2cc(Br)c(Br)o2)n[nH]1` the Potency was “inactive”.
In the case of `CCc1nn(CCCC(=O)NCc2ccc(C)cc2)c(=O)c2cc3occc3n12`, the Potency is reported as inconclusive: 29.1 µM [inhibitor, single point] and inconclusive: 11.6 µM [inhibitor, partial curve].
For `CCN1CCSc2ccc(C(=O)NCc3cc(Br)ccc3OC)cc21`, the Potency was inconclusive: 29.1 µM [inhibitor, single point].
For `CC(=O)Nc1c(S(=O)(=O)c2ccccc2)c2nc3ccccc3nc2n1Cc1ccccc1`, the Potency was “inactive”.
In the case of `CCOC(=O)c1cc(C)nc(S(C)(=O)=O)c1C#N`, the Potency is reported as inconclusive: 29.1 µM [inhibitor, single point].
For `CC(=O)CCS(=O)(=O)c1ccc(C)c(C)c1`, the Potency was active: 29.1 µM.
In the case of `COc1ccc(OCCN2C(=O)c3ccccc3C2=O)c([N+](=O)[O-])c1`, the Potency is reported as “inactive”.
With `CCCC[P+](CCCC)(CCCC)Cc1ccc(NC(=O)[C@@H](Cc2ccc3ccccc3c2)NC(=NC2CCCCC2)NC2CCCCC2)cc1` the Potency was active: 16.8 µM.
In the case of `O=C(COc1ccccc1C(=O)Nc1ccccc1)Nc1ccc(Br)cc1`, the Potency is reported as inconclusive: 22.4 µM [inhibitor, single point].
In the case of `COc1ccccc1C(=O)OCc1cc(=O)n2nc(-c3cccs3)sc2n1`, the Potency is reported as inconclusive: 7.31 µM [inhibitor, partial curve, poor fit].
In the case of `COCc1ccc(CN2CCOc3ccc(C4=CCCCC4)cc3C2)o1`, the Potency is reported as inconclusive: 29.1 µM [inhibitor, single point].
With `CCc1c(-c2ccccc2)ncn1Cc1cccc(-c2ccccc2)c1` the Potency was active: 8.2 µM.
With `CCN(C(=O)c1cc2c(=O)n3cccc(C)c3nc2s1)C1CCCCC1` the Potency was inconclusive: 20.6 µM [inhibitor, single point].
For `CCCCC1=CC2=CC(=O)C(C)(OC(=O)CC)C(=O)C2=CN1C1CCCC1` (configuration not stated), the Potency was inconclusive: 29.1 µM [inhibitor, single point].
For `CCCC(=O)NC(c1ccc(OC)cc1)c1c(O)ccc2ccccc12` (configuration not stated), the Potency was active: 23.1 µM.
With `COc1ccccc1CCC(=O)Nc1cccc(S(=O)(=O)N2CCCCCC2)c1` the Potency was inconclusive: 20.6 µM [inhibitor, single point].
With `O=C(NNC1=NCCC1)c1cccc(S(=O)(=O)N2CCCC2)c1` the Potency was “inactive”.
In the case of `CCCC1CC(CCc2ccccc2)OS(=O)(=O)N1` (configuration not stated), the Potency is reported as “inactive”.
For `COc1cc(OC)cc(C(=O)Nn2cc(C(=O)Nc3ccc(F)cc3F)c3ccccc3c2=O)c1`, the Potency was inconclusive: 18.4 µM [inhibitor, single point].
In the case of `CCOc1ccc(-c2cc(NC(=O)Nc3ccc(Cl)cc3)c(C(=O)OC)s2)cc1`, the Potency is reported as active: 20.6 µM.
In the case of `CNC(=S)N(CCc1c(C)[nH]c2ccc(F)cc12)Cc1ccco1`, the Potency is reported as inconclusive: 25.9 µM [inhibitor, single point].
In the case of `S=C(N/N=C/c1ccco1)NC1CC2CCC1C2` (configuration not stated), the Potency is reported as inconclusive: 29.1 µM [inhibitor, single point].
In the case of `CCOC(=O)N1CCN(c2ncnc3nc[nH]c23)CC1`, the Potency is reported as inconclusive: 16.4 µM [inhibitor, partial curve].
Potency is the fitted concentration of half-maximal effect; tags give direction and shape of the fitted curve.
